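Dose response: 5 concentrations. Exposure: 48 h. Format: 96-well plates. Endpoint: linear interpolation; highest concentration if not reached. GI50 = concentration required for 50% inhibition of growth.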 The source holds more than one record for some entries. The other results are left out here. There may be further records. For some of these results: Records of one sample usually come from different ranges of test concentrations, which the source does not state; some values may only mark the edge of a range. Marks in square brackets tell the records apart. Letters count within one entry. For some of these results: The records of an entry are repeats in other runs, samples, wells, individuals or studies.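 TGI is the concentration that stops growth completely.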
Columns and labels:
Assay in all cases: growth of human tumour cells (NCI), 48 h
786-0 renal = system: 786-0 renal
A498 renal = system: A498 renal
A549 NSCLC = system: A549 NSCLC
ACHN renal = system: ACHN renal
CAKI-1 renal = system: CAKI-1 renal
CCRF-CEM leukemia = system: CCRF-CEM leukemia
COLO 205 colon = system: COLO 205 colon
DLD-1 colon = system: DLD-1 colon
DMS 114 small cell lung = system: DMS 114 small cell lung
DMS 273 small cell lung = system: DMS 273 small cell lung
EKVX NSCLC = system: EKVX NSCLC
HCC-2998 colon = system: HCC-2998 colon
HCT-116 colon = system: HCT-116 colon
HCT-15 colon = system: HCT-15 colon
HL-60(TB) leukemia = system: HL-60(TB) leukemia
HOP-18 NSCLC = system: HOP-18 NSCLC
HOP-62 NSCLC = system: HOP-62 NSCLC
HOP-92 NSCLC = system: HOP-92 NSCLC
HT29 colon = system: HT29 colon
IGROV1 ovarian = system: IGROV1 ovarian
K-562 leukemia = system: K-562 leukemia
KM12 colon = system: KM12 colon
LOX IMVI melanoma = system: LOX IMVI melanoma
LXFL 529 NSCLC = system: LXFL 529 NSCLC
M14 melanoma = system: M14 melanoma
M19-MEL melanoma = system: M19-MEL melanoma
MALME-3M melanoma = system: MALME-3M melanoma
MOLT-4 leukemia = system: MOLT-4 leukemia
NCI-H226 lung = system: NCI-H226 lung
NCI-H23 lung = system: NCI-H23 lung
NCI-H460 lung = system: NCI-H460 lung
OVCAR-3 ovarian = system: OVCAR-3 ovarian
OVCAR-4 ovarian = system: OVCAR-4 ovarian
OVCAR-5 ovarian = system: OVCAR-5 ovarian
OVCAR-8 ovarian = system: OVCAR-8 ovarian
RXF 393 renal = system: RXF 393 renal
SF-268 CNS = system: SF-268 CNS
SF-295 CNS = system: SF-295 CNS
SF-539 CNS = system: SF-539 CNS
SK-MEL-2 melanoma = system: SK-MEL-2 melanoma
SK-MEL-28 melanoma = system: SK-MEL-28 melanoma
SK-MEL-5 melanoma = system: SK-MEL-5 melanoma
SK-OV-3 ovarian = system: SK-OV-3 ovarian
SN12C renal = system: SN12C renal
SNB-19 CNS = system: SNB-19 CNS
SNB-75 CNS = system: SNB-75 CNS
SNB-78 CNS = system: SNB-78 CNS
SR leukemia = system: SR leukemia
SW-620 colon = system: SW-620 colon
TK-10 renal = system: TK-10 renal
U251 CNS = system: U251 CNS
UACC-257 melanoma = system: UACC-257 melanoma
UACC-62 melanoma = system: UACC-62 melanoma
UO-31 renal = system: UO-31 renal

CCN(CC)CCN1C(=O)c2c(c3c4cccc(Cl)c4n(C4OC(CO)C(OC)C(O)C4O)c3c3[nH]c4c(Cl)cccc4c23)C1=O (stereo unspecified)
TGI (786-0 renal): 3.32 nM [sample A, 1 test] and 782 nM [sample A, mean of 2 tests] and 213 nM [sample B, 1 test] | GI50 (A498 renal): < 0.1 nM [sample A, 1 test] and 119 nM [sample A, mean of 2 tests] and < 34.9 nM [sample B, mean of 2 tests] | TGI (A498 renal): 2.2 nM [sample A, 1 test] and 276 nM [sample A, mean of 2 tests] and 168 nM [sample B, mean of 2 tests] | TGI (A549 NSCLC): 1.06 nM [sample A, 1 test] and 365 nM [sample A, mean of 2 tests] and 1.3 µM [sample B, 1 test] | TGI (ACHN renal): 4.12 nM [sample A, 1 test] and 241 nM [sample A, mean of 2 tests] and 2.18 µM [sample B, 1 test] | GI50 (CAKI-1 renal): 0.1 nM [sample A, 1 test] and < 31 nM [sample A, mean of 2 tests] and 84.5 nM [sample B, mean of 2 tests] | TGI (CAKI-1 renal): 0.813 nM [sample A, 1 test] and 386 nM [sample A, mean of 2 tests] and 1.31 µM [sample B, mean of 2 tests] | TGI (CCRF-CEM leukemia): 0.719 nM and 194 nM | GI50 (COLO 205 colon): < 0.1 nM [sample A, 1 test] and 27.9 nM [sample A, mean of 2 tests] and < 10 nM [sample B, 1 test] | TGI (COLO 205 colon): 1.63 nM [sample A, 1 test] and 2.03 µM [sample A, mean of 2 tests] and > 100 µM [sample B, 1 test] | TGI (DLD-1 colon): 3.73 nM and 753 nM | TGI (DMS 114 small cell lung): 1.52 nM and 667 nM | TGI (DMS 273 small cell lung): 1.4 nM and 167 nM | GI50 (EKVX NSCLC): 1.27 nM [sample A, 1 test] and 157 nM [sample A, mean of 2 tests] and < 41.6 nM [sample B, mean of 2 tests] | TGI (EKVX NSCLC): 4.26 nM [sample A, 1 test] and 583 nM [sample A, mean of 2 tests] and 379 nM [sample B, mean of 2 tests] | TGI (HCC-2998 colon): 1.6 nM [sample A, 1 test] and 302 nM [sample A, mean of 2 tests] and < 23.7 nM [sample B, mean of 2 tests] | TGI (HCT-116 colon): 1.4 nM, 349 nM [sample A] and 483 nM [sample B] | GI50 (HCT-15 colon): 0.718 nM [sample A, 1 test] and 75.3 nM [sample B, 1 test] | TGI (HCT-15 colon): 5.44 nM, 812 nM [sample A] and 38.9 µM [sample B] | TGI (HL-60(TB) leukemia): 770 nM [sample A, mean of 2 tests] and > 100 µM [sample B, 1 test] | TGI (HOP-18 NSCLC): 4.65 nM and 524 nM | TGI (HOP-62 NSCLC): 2.18 nM [sample A, 1 test] and 99.5 nM [sample A, mean of 2 tests] and 330 nM [sample B, mean of 2 tests] | TGI (HOP-92 NSCLC): 6.03 nM, 309 nM [sample A] and 628 nM [sample B] | TGI (HT29 colon): 12.5 nM and 481 nM | GI50 (IGROV1 ovarian): < 0.1 nM [sample A, 1 test] and 39.5 nM [sample A, mean of 2 tests] and < 10 nM [sample B, mean of 2 tests] | TGI (IGROV1 ovarian): 1.91 nM [1 test] and 656 nM [mean of 2 tests] | GI50 (K-562 leukemia): < 0.1 nM and 46.2 nM | TGI (K-562 leukemia): 3.35 nM and 1.2 µM | TGI (KM12 colon): 4.36 nM [sample A, 1 test] and 638 nM [sample A, mean of 2 tests] and 432 nM [sample B, mean of 2 tests] | TGI (LOX IMVI melanoma): 1.69 nM [1 test] and 48.4 nM [mean of 2 tests] | TGI (LXFL 529 NSCLC): 3.84 nM and 504 nM | TGI (M14 melanoma): 3.02 nM [sample A, 1 test] and 270 nM [sample A, mean of 2 tests] and 165 nM [sample B, mean of 2 tests] | TGI (M19-MEL melanoma): 1.54 nM and 453 nM | GI50 (MALME-3M melanoma): 0.232 nM [sample A, 1 test] and 82.8 nM [sample A, mean of 2 tests] and < 10 nM [sample B, 1 test] | TGI (MALME-3M melanoma): 2.49 nM [sample A, 1 test] and 841 nM [sample A, mean of 2 tests] and 39.4 nM [sample B, 1 test] | TGI (MOLT-4 leukemia): 0.336 nM, 152 nM [sample A] and > 100 µM [sample B] | GI50 (NCI-H226 lung): 0.256 nM, > 100 µM [sample A, 1 test] and 19.9 nM [sample B, 1 test] | TGI (NCI-H226 lung): 2.38 nM, > 100 µM [sample A, 1 test] and 220 nM [sample B, 1 test] | TGI (NCI-H23 lung): 2.52 nM [sample A, 1 test] and 236 nM [sample A, mean of 2 tests] and 135 nM [sample B, mean of 2 tests] | TGI (NCI-H460 lung): 0.67 nM and 126 nM | GI50 (OVCAR-3 ovarian): 0.189 nM [sample A, 1 test] and 47.9 nM [sample A, mean of 2 tests] and < 10 nM [sample B, 1 test] | TGI (OVCAR-3 ovarian): 2.47 nM [sample A, 1 test] and 466 nM [sample A, mean of 2 tests] and 436 nM [sample B, 1 test] | GI50 (OVCAR-4 ovarian): 0.122 nM [sample A, 1 test] and 76.5 nM [sample A, mean of 2 tests] and 11.6 nM [sample B, mean of 2 tests] | TGI (OVCAR-4 ovarian): 2.4 nM [sample A, 1 test] and 478 nM [sample A, mean of 2 tests] and 257 nM [sample B, mean of 2 tests] | GI50 (OVCAR-5 ovarian): 0.925 nM, > 100 µM [sample A, 1 test] and < 37.5 nM [sample B, mean of 2 tests] | TGI (OVCAR-5 ovarian): 11.8 nM, > 100 µM [sample A, 1 test] and 628 nM [sample B, mean of 2 tests] | TGI (OVCAR-8 ovarian): 4.24 nM [1 test] and 420 nM [mean of 2 tests] | TGI (RXF 393 renal): < 0.1 nM [sample A, 1 test] and 144 nM [sample A, mean of 2 tests] and 130 nM [sample B, 1 test] | TGI (SF-268 CNS): 2.86 nM, 731 nM [sample A, 1 test] and 292 nM [sample B, 1 test] | TGI (SF-295 CNS): 7.52 nM, 268 nM [sample A] and 506 nM [sample B] | GI50 (SF-539 CNS): 0.183 nM [sample A, 1 test] and 37.7 nM [sample A, mean of 2 tests] and < 10 nM [sample B, 1 test] | TGI (SF-539 CNS): 1.82 nM [1 test] and 256 nM [mean of 2 tests] | TGI (SK-MEL-2 melanoma): 2.81 nM, 370 nM [sample A] and 206 nM [sample B] | GI50 (SK-MEL-28 melanoma): 0.487 nM [sample A, 1 test] and 76.2 nM [sample A, mean of 2 tests] and 52.7 nM [sample B, 1 test] | TGI (SK-MEL-28 melanoma): 5.74 nM [sample A, 1 test] and 827 nM [sample A, mean of 2 tests] and 470 nM [sample B, 1 test] | GI50 (SK-MEL-5 melanoma): 0.384 nM [sample A, 1 test] and 54.1 nM [sample A, mean of 2 tests] and < 13.9 nM [sample B, mean of 2 tests] | TGI (SK-MEL-5 melanoma): 2.69 nM [sample A, 1 test] and 630 nM [sample A, mean of 2 tests] and 157 nM [sample B, mean of 2 tests] | GI50 (SK-OV-3 ovarian): 0.147 nM, 56.4 nM [sample A, 1 test] and 1.1 µM [sample B, mean of 2 tests] | TGI (SK-OV-3 ovarian): 2.98 nM, 766 nM [sample A, 1 test] and > 100 µM [sample B, mean of 2 tests] | GI50 (SN12C renal): < 0.1 nM, 62.4 nM [sample A, 1 test] and 10.3 nM [sample B, 1 test] | TGI (SN12C renal): 3.58 nM, 965 nM [sample A, 1 test] and 1.45 µM [sample B, 1 test] | GI50 (SNB-19 CNS): < 0.1 nM [sample A, 1 test] and 354 nM [sample B, 1 test] | TGI (SNB-19 CNS): < 0.1 nM, 1.69 µM [sample A, 1 test] and > 100 µM [sample B, 1 test] | GI50 (SNB-75 CNS): 0.174 nM [1 test] and 37.9 nM [mean of 2 tests] | TGI (SNB-75 CNS): 3.08 nM [1 test] and 367 nM [mean of 2 tests] | TGI (SNB-78 CNS): 7.56 nM and 1.21 µM | TGI (SR leukemia): < 0.1 nM and 28.2 nM | TGI (SW-620 colon): 2.94 nM [sample A, 1 test] and 508 nM [sample A, mean of 2 tests] and 225 nM [sample B, 1 test] | GI50 (TK-10 renal): 1.73 nM [sample A, 1 test] and 87 nM [sample A, mean of 2 tests] and < 10 nM [sample B, mean of 2 tests] | TGI (TK-10 renal): 16.3 nM [sample A, 1 test] and 1.33 µM [sample A, mean of 2 tests] and 73.6 nM [sample B, mean of 2 tests] | TGI (U251 CNS): 9.4 nM [sample A, 1 test] and 608 nM [sample A, mean of 2 tests] and 4.44 µM [sample B, 1 test] | GI50 (UACC-257 melanoma): 1.32 nM [sample A, 1 test] and 128 nM [sample A, mean of 2 tests] and 84.9 nM [sample B, 1 test] | TGI (UACC-257 melanoma): 8.09 nM [sample A, 1 test] and 705 nM [sample A, mean of 2 tests] and 674 nM [sample B, 1 test] | TGI (UACC-62 melanoma): 0.484 nM [sample A, 1 test] and 177 nM [sample A, mean of 2 tests] and 78.4 nM [sample B, mean of 2 tests] | GI50 (UO-31 renal): 0.832 nM, 179 nM [sample A, 1 test] and 23.4 nM [sample B, 1 test] | TGI (UO-31 renal): 3.15 nM, 560 nM [sample A, 1 test] and 162 nM [sample B, 1 test]

From PubChem BioAssay (NCI)
